The sequences are guide strands of siRNAs; only the seed at positions 2 to 7 varies.
Columns and labels:
GL261 = assay: cell viability relative to siNT1 (ATP content); H4 human neuroglioma and GL261 mouse glioma; higher = less toxic; details: siRNA concentration 25 nM; 96 h; mouse
H4 = assay: as above; details: siRNA concentration 10 nM; 96 h; human
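Also: cells reverse transfected with siRNA duplexes via lipid reagent, ATP read by luminescence, triplicate wells, values scaled to mean viability with non-targeting control siNT1.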

For UGGAUGAACAUGUAAACCA, the cell viability (GL261) was 45.5% and the cell viability (H4) was 66.7%.
With UGGAUGCACAUGUAAACCA the cell viability (GL261) was 17.4% and the cell viability (H4) was 22.9%.
UGGAUGGACAUGUAAACCA was tested, and the cell viability (GL261) was 12.4% and the cell viability (H4) was 19.4%.
For UGGAUGUACAUGUAAACCA, the cell viability (GL261) was 45.8% and the cell viability (H4) was 91%.
UGGAUUAACAUGUAAACCA showed a cell viability (GL261) of 59.9% and a cell viability (H4) of 90.9%.
For UGGAUUCACAUGUAAACCA, the cell viability (GL261) was 46.5% and the cell viability (H4) was 86%.
UGGAUUGACAUGUAAACCA was tested, and the cell viability (GL261) was 66.3% and the cell viability (H4) was 81.3%.
For UGGAUUUACAUGUAAACCA, the cell viability (GL261) was 80% and the cell viability (H4) was 86.9%.
UGGCAAAACAUGUAAACCA showed a cell viability (GL261) of 21.8% and a cell viability (H4) of 92.7%.
UGGCAACACAUGUAAACCA showed a cell viability (GL261) of 36% and a cell viability (H4) of 61.5%.
For UGGCAAGACAUGUAAACCA, the cell viability (GL261) was 29.1% and the cell viability (H4) was 62.6%.
UGGCAAUACAUGUAAACCA gave a cell viability (GL261) of 18.9% and a cell viability (H4) of 64.8%.
With UGGCACAACAUGUAAACCA the cell viability (GL261) was 13.7% and the cell viability (H4) was 34.1%.
Sequence UGGCACCACAUGUAAACCA has a cell viability (GL261) of 19.4% and a cell viability (H4) of 32.6%.
UGGCACGACAUGUAAACCA showed a cell viability (GL261) of 17% and a cell viability (H4) of 76.6%.
Work on UGGCACUACAUGUAAACCA yielded a cell viability (GL261) of 5.72% and a cell viability (H4) of 33.8%.
Sequence UGGCAGAACAUGUAAACCA has a cell viability (GL261) of 8.94% and a cell viability (H4) of 37.6%.
Work on UGGCAGCACAUGUAAACCA yielded a cell viability (GL261) of 7.25% and a cell viability (H4) of 6.46%.
With UGGCAGGACAUGUAAACCA the cell viability (GL261) was 11.7% and the cell viability (H4) was 4.74%.
For UGGCAGUACAUGUAAACCA, the cell viability (GL261) was 8.7% and the cell viability (H4) was 23.1%.
UGGCAUAACAUGUAAACCA was tested, and the cell viability (GL261) was 27.5% and the cell viability (H4) was 83.7%.
With UGGCAUCACAUGUAAACCA the cell viability (GL261) was 14% and the cell viability (H4) was 26.6%.
With UGGCAUGACAUGUAAACCA the cell viability (GL261) was 15% and the cell viability (H4) was 38.2%.
Work on UGGCAUUACAUGUAAACCA yielded a cell viability (GL261) of 15.3% and a cell viability (H4) of 78.5%.
UGGCCAAACAUGUAAACCA was tested, and the cell viability (GL261) was 50.8% and the cell viability (H4) was 48.5%.
For UGGCCACACAUGUAAACCA, the cell viability (GL261) was 23.6% and the cell viability (H4) was 5.09%.
UGGCCAGACAUGUAAACCA gave a cell viability (GL261) of 41.2% and a cell viability (H4) of 23.7%.
Sequence UGGCCAUACAUGUAAACCA has a cell viability (GL261) of 38.8% and a cell viability (H4) of 5.6%.
UGGCCCAACAUGUAAACCA showed a cell viability (GL261) of 26.9% and a cell viability (H4) of 50.6%.
With UGGCCCCACAUGUAAACCA the cell viability (GL261) was 20.6% and the cell viability (H4) was 27.1%.
UGGCCCGACAUGUAAACCA gave a cell viability (GL261) of 20.3% and a cell viability (H4) of 86.2%.
UGGCCCUACAUGUAAACCA showed a cell viability (GL261) of 16.9% and a cell viability (H4) of 21.5%.
UGGCCGAACAUGUAAACCA showed a cell viability (GL261) of 37.4% and a cell viability (H4) of 45.2%.
With UGGCCGCACAUGUAAACCA the cell viability (GL261) was 11% and the cell viability (H4) was 7.25%.
For UGGCCGGACAUGUAAACCA, the cell viability (GL261) was 26.8% and the cell viability (H4) was 8.21%.
Sequence UGGCCGUACAUGUAAACCA has a cell viability (GL261) of 22.9% and a cell viability (H4) of 20.4%.
For UGGCCUAACAUGUAAACCA, the cell viability (GL261) was 66.4% and the cell viability (H4) was 36.2%.
UGGCCUCACAUGUAAACCA showed a cell viability (GL261) of 17.3% and a cell viability (H4) of 27.7%.
UGGCCUGACAUGUAAACCA showed a cell viability (GL261) of 29.8% and a cell viability (H4) of 45.2%.
Work on UGGCCUUACAUGUAAACCA yielded a cell viability (GL261) of 43.7% and a cell viability (H4) of 26.4%.
UGGCGAAACAUGUAAACCA gave a cell viability (GL261) of 19.8% and a cell viability (H4) of 93.2%.
UGGCGACACAUGUAAACCA was tested, and the cell viability (GL261) was 9.86% and the cell viability (H4) was 47.8%.
Work on UGGCGAGACAUGUAAACCA yielded a cell viability (GL261) of 14.3% and a cell viability (H4) of 17.9%.
Sequence UGGCGAUACAUGUAAACCA has a cell viability (GL261) of 16.3% and a cell viability (H4) of 29.3%.
For UGGCGCAACAUGUAAACCA, the cell viability (GL261) was 13.8% and the cell viability (H4) was 65.5%.
Work on UGGCGCCACAUGUAAACCA yielded a cell viability (GL261) of 14.9% and a cell viability (H4) of 27.5%.
Sequence UGGCGCGACAUGUAAACCA has a cell viability (GL261) of 26.5% and a cell viability (H4) of 64.4%.
With UGGCGCUACAUGUAAACCA the cell viability (GL261) was 12.4% and the cell viability (H4) was 70.1%.
Sequence UGGCGGAACAUGUAAACCA has a cell viability (GL261) of 10.4% and a cell viability (H4) of 43%.
Work on UGGCGGCACAUGUAAACCA yielded a cell viability (GL261) of 4.61% and a cell viability (H4) of 26.4%.
For UGGCGGGACAUGUAAACCA, the cell viability (GL261) was 8.26% and the cell viability (H4) was 7.21%.
Sequence UGGCGGUACAUGUAAACCA has a cell viability (GL261) of 18.6% and a cell viability (H4) of 21%.
For UGGCGUAACAUGUAAACCA, the cell viability (GL261) was 28% and the cell viability (H4) was 89.6%.
Sequence UGGCGUCACAUGUAAACCA has a cell viability (GL261) of 34.6% and a cell viability (H4) of 71.9%.
UGGCGUGACAUGUAAACCA was tested, and the cell viability (GL261) was 32.4% and the cell viability (H4) was 61.4%.
Sequence UGGCGUUACAUGUAAACCA has a cell viability (GL261) of 32% and a cell viability (H4) of 74.3%.
Work on UGGCUAAACAUGUAAACCA yielded a cell viability (GL261) of 48.7% and a cell viability (H4) of 59.3%.
Work on UGGCUACACAUGUAAACCA yielded a cell viability (GL261) of 21.2% and a cell viability (H4) of 47.1%.
Work on UGGCUAGACAUGUAAACCA yielded a cell viability (GL261) of 22.1% and a cell viability (H4) of 35.7%.
With UGGCUAUACAUGUAAACCA the cell viability (GL261) was 16.2% and the cell viability (H4) was 47.4%.
With UGGCUCAACAUGUAAACCA the cell viability (GL261) was 17.1% and the cell viability (H4) was 26.7%.
For UGGCUCCACAUGUAAACCA, the cell viability (GL261) was 7.04% and the cell viability (H4) was 26%.
In the case of UGGCUCGACAUGUAAACCA, the cell viability (GL261) is reported as 16.5% and the cell viability (H4) is reported as 27.8%.
Work on UGGCUCUACAUGUAAACCA yielded a cell viability (GL261) of 13.3% and a cell viability (H4) of 6.82%.
In the case of UGGCUGAACAUGUAAACCA, the cell viability (GL261) is reported as 18.4% and the cell viability (H4) is reported as 55.9%.
UGGCUGCACAUGUAAACCA showed a cell viability (GL261) of 7.15% and a cell viability (H4) of 19.1%.
With UGGCUGGACAUGUAAACCA the cell viability (GL261) was 7.29% and the cell viability (H4) was 4.57%.
UGGCUGUACAUGUAAACCA was tested, and the cell viability (GL261) was 12.7% and the cell viability (H4) was 44.7%.
For UGGCUUAACAUGUAAACCA, the cell viability (GL261) was 48% and the cell viability (H4) was 61.6%.
Work on UGGCUUCACAUGUAAACCA yielded a cell viability (GL261) of 10.6% and a cell viability (H4) of 54%.
In the case of UGGCUUGACAUGUAAACCA, the cell viability (GL261) is reported as 13.1% and the cell viability (H4) is reported as 66.7%.
UGGCUUUACAUGUAAACCA showed a cell viability (GL261) of 43.9% and a cell viability (H4) of 65.9%.
UGGGAAAACAUGUAAACCA was tested, and the cell viability (GL261) was 39% and the cell viability (H4) was 68%.
UGGGAACACAUGUAAACCA showed a cell viability (GL261) of 25.6% and a cell viability (H4) of 62.7%.
UGGGAAGACAUGUAAACCA was tested, and the cell viability (GL261) was 37.1% and the cell viability (H4) was 83.4%.
In the case of UGGGAAUACAUGUAAACCA, the cell viability (GL261) is reported as 46.3% and the cell viability (H4) is reported as 68.1%.
With UGGGACAACAUGUAAACCA the cell viability (GL261) was 35.9% and the cell viability (H4) was 83.9%.
UGGGACCACAUGUAAACCA gave a cell viability (GL261) of 24.8% and a cell viability (H4) of 80.6%.
With UGGGACGACAUGUAAACCA the cell viability (GL261) was 50.2% and the cell viability (H4) was 61.9%.
With UGGGACUACAUGUAAACCA the cell viability (GL261) was 19.9% and the cell viability (H4) was 72.1%.
UGGGAGAACAUGUAAACCA was tested, and the cell viability (GL261) was 14% and the cell viability (H4) was 38.4%.
Sequence UGGGAGCACAUGUAAACCA has a cell viability (GL261) of 11% and a cell viability (H4) of 28.9%.
Work on UGGGAGGACAUGUAAACCA yielded a cell viability (GL261) of 5.49% and a cell viability (H4) of 5.13%.
UGGGAGUACAUGUAAACCA was tested, and the cell viability (GL261) was 6.53% and the cell viability (H4) was 42.8%.
UGGGAUAACAUGUAAACCA showed a cell viability (GL261) of 29.1% and a cell viability (H4) of 79.4%.
Work on UGGGAUCACAUGUAAACCA yielded a cell viability (GL261) of 8.7% and a cell viability (H4) of 9.65%.
UGGGAUGACAUGUAAACCA gave a cell viability (GL261) of 17.4% and a cell viability (H4) of 41.9%.
UGGGAUUACAUGUAAACCA was tested, and the cell viability (GL261) was 24% and the cell viability (H4) was 57.1%.
In the case of UGGGCAAACAUGUAAACCA, the cell viability (GL261) is reported as 22.8% and the cell viability (H4) is reported as 32.7%.
Work on UGGGCACACAUGUAAACCA yielded a cell viability (GL261) of 16.4% and a cell viability (H4) of 30%.
